From PubChem BioAssay AID540267 (National Center for Advancing Translational Sciences (NCATS), 2011)
Hit rate of the full screen: of about 340,000 compounds, about 530 (0.16%) were called active. Inconclusive means that the source gave no clear call. Such entries were picked first, then a sample of the others. Rule as the data show it: active = activity change below about -80%; inconclusive = between about -30% and that limit; inactive = weaker than that.

experiment: Small Molecules that selectively kill Giardia lamblia: qHTS; conditions: Giardia lamblia trophozoite viability; at 7.66 µM; hits give low values;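 also: parasites exposed to compound for two days anaerobically before the ATP read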
Summary of the method: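 Media and compound were dispensed first, then trophozoites at 100 cells/well; plates sat 48 hrs at 37 deg C without oxygen before ATP luminescence reagent was added and read after 15-30 min at room temperature.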
% is scaled to controls: 0 for no effect and ±100 for the full control effect.

Structure (SMILES)	activity change
COc1ccc(-c2cc(=O)oc(-c3cccc(C)c3)n2)cc1	inactive: -5.68%
CCc1ccc(CCC(=O)Nc2ccc(Br)cc2)o1	inactive: 14.7%
O=C(CSc1ccsc1[N+](=O)[O-])Nc1cccc(F)c1	inconclusive: -60.1% [inhibitor]
O=c1c([N+](=O)[O-])cccn1Cc1cccc(Cl)c1	inconclusive: -79.3% [inhibitor]
CCn1cc(C(=O)OCC(=O)c2ccc(Cl)cc2)c(=O)c2ccc(C)nc21	inconclusive: -31.1% [inhibitor]
COc1cc(-c2noc(C)c2C(=O)NCCc2c[nH]c3ccccc23)cc(OC)c1OC	inactive: -5.87%
CCOC(=O)COc1ccc(-c2nnc(-c3ccccc3)o2)cc1	inconclusive: -35% [inhibitor]
COc1ccc(C(=O)NCCc2nnc3ccc(SCC(=O)N4CCCCC4)nn23)cc1	inconclusive: -33% [inhibitor]
O=C(COc1cccnc1[N+](=O)[O-])Nc1cc(S(=O)(=O)N2CCCCC2)ccc1Cl	inconclusive: -70.7% [inhibitor]
Cn1cnc([N+](=O)[O-])c1SCC(O)CCl (configuration not stated)	inconclusive: -44.3% [inhibitor]
CCC(=O)Nc1ccc2oc(-c3cccc(C)c3)nc2c1	inconclusive: -32.9% [inhibitor]
CC(Nc1ncnc2ccccc12)c1ccccc1 (configuration not stated)	inactive: -11.3%
CN(C)S(=O)(=O)c1ccc(C(=O)OC2CCOC2=O)cc1 (configuration not stated)	inconclusive: -30.4% [inhibitor]
CCCN1C(=O)c2cc(C(=O)NCc3ccc(OC)cc3)ccc2C1O (configuration not stated)	inconclusive: -39.2% [inhibitor]
O=C(O)C1CCCN1S(=O)(=O)c1ccc(Br)cc1 (configuration not stated)	inconclusive: -47.7% [inhibitor]
OCCC1CN(Cc2cnc(-c3ccc(Cl)cc3)nc2)CCN1C1CCCCC1 (configuration not stated)	inconclusive: -32.9% [inhibitor]
CC1Cc2ccccc2N1C(=O)CSc1nnc2c(n1)[nH]c1ccccc12 (configuration not stated)	inactive: 12.1%
Cc1ccc(C(=O)N2CCC(C)CC2)cc1C	inconclusive: -32.3% [inhibitor]
Cc1nc2ccccc2c(=O)n1NC(=O)c1c(F)cccc1F	inconclusive: -32.5% [inhibitor]
COc1ccc2nc(NC(=O)c3cccc(N4C(=O)CCC4=O)c3)sc2c1	inconclusive: -45.9% [inhibitor]
CCOc1ccc(C(C)(N)C(=O)O)cc1 (configuration not stated)	inactive: 0.0112%
C=CCn1c(N)c(C(=O)OCCC)c2nc3ccccc3nc21	inactive: 6.81%
Oc1cc(-n2cccn2)c(O)cc1-n1cccn1	inactive: -12.4%
Cn1nc(-c2ccccc2)cc1NC(=O)c1ccc(Cl)cc1	inconclusive: -30.8% [inhibitor]
CCc1cc2c(NCC(=O)O)ncnc2s1	inconclusive: -33.8% [inhibitor]
CC(=O)NC(Cc1cccc(F)c1)C(=O)NC1CCN(c2ncccc2[N+](=O)[O-])CC1 (configuration not stated)	inconclusive: -55.6% [inhibitor]

Structure (SMILES)	activity change
COC(=O)c1c(NC(=O)Cc2ccccc2)sc2c1C(C(=O)OC)CC2 (configuration not stated)	inactive: 16.1%
CCOc1ccc(/C=c2\sc3nc(-c4ccco4)nn3c2=O)cc1OCC	inactive: 11.3%
CN(C)c1ccc(O)c2c1CC1CC3C(N(C)C)C(=O)C(C(N)=O)=C(O)[C@@]3(O)C(=O)C1=C2O (some centres not stated)	inactive: -11.9%
CCC(=O)N1CCc2cc(S(=O)(=O)NCCC(=O)N3CCN(c4cccc(OC)c4)CC3)ccc21	inconclusive: -36.3% [inhibitor]
COc1cc2c(cc1OC)C(C(=O)Nc1ccccc1N1CCN(C)CC1)C1c3ccccc3CCN1C2=O (configuration not stated)	inactive: -10.3%
CCCCn1c(N)c(N(C(=O)CSc2nncn2-c2ccccc2C)C2CCCC2)c(=O)[nH]c1=O	inconclusive: -32.2% [inhibitor]
Nc1sc(-c2ccccc2)c(Cc2ccccc2)c1C(=O)O	inconclusive: -41.1% [inhibitor]
O=C1CN(C(=O)c2c(F)cccc2F)C(c2ccc(F)cc2)c2cc(Br)ccc2N1 (configuration not stated)	inconclusive: -42.9% [inhibitor]
CC(Oc1ccccc1)C(=O)Nc1nnc(S(=O)(=O)N2CCCCC2)s1 (configuration not stated)	active: -83.5%
O=P(c1ccccc1)(c1ccccc1)C(O)c1ccccn1 (configuration not stated)	inactive: 4.15%
N/C(=N/OCc1cccc([N+](=O)[O-])c1)c1nonc1N	inconclusive: -32.4% [inhibitor]
c1cc(-c2cc3cc(N4CCOCC4)ccc3o2)cs1	inconclusive: -61.2% [inhibitor]
CC(C)CC(c1nnnn1Cc1ccc(F)cc1)N1CCC(C(N)=O)CC1 (configuration not stated)	inconclusive: -38% [inhibitor]
Cc1onc(-c2ccccc2Cl)c1C(=O)Nc1nnc(-c2ccc(F)cc2)s1	inactive: 3.74%
Cc1ncoc1C(=O)Nc1ncc([N+](=O)[O-])s1	active: -86.9%
O=C(Nc1ccc(Cl)cc1)N(C1=NCCC1)c1ccc(OC(F)F)cc1	inactive: -0.106%
OC(COc1cccc2ccccc12)CN1CCN(c2ccc(Cl)cc2)CC1 (configuration not stated)	inconclusive: -50.9% [inhibitor]
Cn1c(CNC(=O)c2ccccc2F)cc2ccccc21	inconclusive: -47.8% [inhibitor]
O=C(CSc1nnc(NC(=O)c2c(F)cccc2F)s1)Nc1ccc(F)cc1	inconclusive: -49.5% [inhibitor]
Nc1cccc(NP(=O)(c2ccccc2)c2ccccc2)c1	inactive: 13.2%
Cc1c(Cl)c([N+](=O)[O-])nn1CCCC(=O)N(Cc1ccccc1)Cc1ccccc1	inconclusive: -35.5% [inhibitor]
CCCCOC(=O)NC1CCc2cc(OC)c(OC)c(OC)c2-c2ccc(SC)c(=O)cc21 (configuration not stated)	inactive: -11.6%
CCOc1cc(/C=N/NC(=O)Nc2ccccc2)ccc1O	inconclusive: -32.3% [inhibitor]
CN1C2CCC1CC(NC(=O)c1ccc(Cl)cc1)C2 (configuration not stated)	inactive: -6.46%
CS(=O)(=O)N1CCN(C(=O)NC2CCCCC2)CC1	inconclusive: -37.1% [inhibitor]
O=C(CNc1ccccc1)N/N=C/c1cn(-c2ccccc2)nc1-c1ccccc1	inactive: -4.66%
